For 66 cell lines, AUC and IC50 results are on record in the supplement of paper PMC4967469.

In general, IC50 refers to the concentration at which inhibition is half-maximal.

IC50 is the fitted dose that halves viability relative to control wells, and lower means more sensitive; fits outside the tested doses are given as limits. AUC, from the same fit, is the share of area under the viability curve across the 256-fold dose range; values near 1 show little effect.

Compound in this assay: FC(F)c1nc2ccccc2n1-c1nc(N2CCOCC2)nc(N2CCOCC2)n1 [ZSTK474]
Put plainly: Viability of human cancer cell lines after 72 h of drug (GDSC screen). The protocol:
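Human cancer cell lines in 384-well plates, medium with 10% serum, drug for 72 h over a 256-fold dose range (nine 2-fold or five 4-fold steps up to the top dose). Adherent lines were fixed and stained with the nucleic acid dye Syto60, suspension lines read with resazurin; signal relative to control wells, capped at 0 and 100%. One two-parameter sigmoid per drug and line, fitted in a mixed model over all curves with the slope shared within a line.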

For “PCI-30 (head and neck, adherent, top dose 5.12 µM)”, the AUC was 0.971 and the IC50 is above 5120 nM.
Consider “PCI-38 (head and neck, adherent, top dose 5.12 µM)”, for which the AUC was 0.944 and the IC50 was above 5120 nM.
In the same order, the values of “PE/CA-PJ15 (head and neck, adherent, top dose 5.12 µM)” are 0.92 and above 5120 nM.
As to “PEO1 (ovary, adherent, top dose 5.12 µM)”, the AUC is 0.797 and the IC50 is 2530 nM.
“PF-382 (T-cell lymphoblastic leukaemia, suspension, top dose 5.12 µM)”: the AUC was found to be 0.387 and the IC50 worked out at 163 nM.
Regarding “PFSK-1 (medulloblastoma, adherent, top dose 5.12 µM)”, the AUC came to 0.773 and the IC50 came to 2110 nM.
Consider “PL4 (pancreas, adherent, top dose 5.12 µM)”, for which the AUC turned out to be 0.882 and the IC50 was above 5120 nM.
For the cell line “PL18 (pancreas, adherent, top dose 5.12 µM)”, the AUC is 0.924 and the IC50 is above 5120 nM.
Take “PL-21 (acute myeloid leukaemia, suspension, top dose 5.12 µM)”: the AUC was determined as 0.387 and the IC50 was 149 nM.
Turning to “PSN1 (pancreas, adherent, top dose 5.12 µM)”, the AUC was found to be 0.8 and the IC50 stood at 2040 nM.
Consider “QGP-1 (pancreas, adherent, top dose 5.12 µM)”, for which the AUC came out at 0.893 and the IC50 was above 5120 nM.
Turning to “QIMR-WIL (acute myeloid leukaemia, suspension, top dose 5.12 µM)”, the AUC was 0.272 and the IC50 is 73.3 nM.
As for “RC-K8 (B-cell lymphoma, suspension, top dose 5.12 µM)”, the AUC was 0.968 and the IC50 was above 5120 nM.
As to “RCC10RGB (kidney, adherent, top dose 10.24 µM)”, the AUC came out at 0.85 and the IC50 was above 10200 nM.
Take “RCC-AB (kidney, adherent, top dose 5.12 µM)”: the AUC was 0.488 and the IC50 was found to be 293 nM.
Take “RCC-ER (kidney, adherent, top dose 5.12 µM)”: the AUC was 0.733 and the IC50 worked out at 1610 nM.
As for “RCC-FG2 (kidney, adherent, top dose 5.12 µM)”, the AUC is 0.643 and the IC50 was 891 nM.
As for “RCC-JF (kidney, adherent, top dose 5.12 µM)”, the AUC is 0.522 and the IC50 was 371 nM.
As to “RCC-JW (kidney, adherent, top dose 5.12 µM)”, the AUC came to 0.518 and the half-inhibitory concentration (IC50) turned out to be 358 nM.
For the cell line “RCC-MF (kidney, adherent, top dose 5.12 µM)”, the AUC was 0.576 and the IC50 stood at 550 nM.
Regarding “RCM-1 (large intestine, adherent, top dose 5.12 µM)”, the AUC amounted to 0.921 and the IC50 is above 5120 nM.
In the same order, the values of “RD (rhabdomyosarcoma, adherent, top dose 5.12 µM)” are 0.799 and 2720 nM.
Taken in the same sequence, the figures for “REH (B-cell leukaemia, suspension, top dose 5.12 µM)” were 0.342 and 119 nM.
In the case of “RERF-GC-1B (stomach, adherent, top dose 5.12 µM)”, the AUC amounted to 0.869 and the IC50 was above 5120 nM.
For “RERF-LC-KJ (lung adenocarcinoma, adherent, top dose 5.12 µM)”, the AUC was 0.811 and the IC50 was determined as 2820 nM.
In the same order, the values of “RERF-LC-MS (lung adenocarcinoma, adherent, top dose 5.12 µM)” are 0.75 and 1710 nM.
As for “RERF-LC-Sq1 (lung squamous cell carcinoma, adherent, top dose 5.12 µM)”, the AUC worked out at 0.805 and the IC50 was 4180 nM.
For the cell line “RF-48 (stomach, adherent, top dose 5.12 µM)”, the AUC was 0.549 and the IC50 stood at 442 nM.
As to “RH-1 (rhabdomyosarcoma, adherent, top dose 5.12 µM)”, the AUC came out at 0.522 and the IC50 is 363 nM.
For “RH-18 (rhabdomyosarcoma, adherent, top dose 5.12 µM)”, the AUC came out at 0.604 and the IC50 is 646 nM.
In the case of “RH-41 (rhabdomyosarcoma, adherent, top dose 5.12 µM)”, the AUC was determined as 0.896 and the IC50 was found to be 4490 nM.
RKN (ovary, adherent, top dose 5.12 µM): the AUC stood at 0.631 and the IC50 worked out at 750 nM.
In the case of “RKO (large intestine, adherent, top dose 5.12 µM)”, the AUC worked out at 0.768 and the IC50 amounted to 1780 nM.
In the case of “RL95-2 (endometrium, adherent, top dose 5.12 µM)”, the AUC is 0.97 and the IC50 is above 5120 nM.
For “RL (B-cell lymphoma, suspension, top dose 5.12 µM)”, the AUC came to 0.484 and the IC50 is 291 nM.
With “RMG-I (ovary, adherent, top dose 5.12 µM)”, the AUC was determined as 0.599 and the IC50 was found to be 627 nM.
Taken in the same sequence, the figures for “RO82-W-1 (thyroid, adherent, top dose 5.12 µM)” were 0.959 and above 5120 nM.
As for “ROS-50 (B-cell leukaemia, suspension, top dose 5.12 µM)”, the AUC was 0.844 and the IC50 is above 5120 nM.
For the cell line “RPMI-2650 (head and neck, adherent, top dose 5.12 µM)”, the AUC was 0.819 and the IC50 was 3220 nM.
As to “RPMI-6666 (Hodgkin lymphoma, suspension, top dose 5.12 µM)”, the AUC came to 0.239 and the IC50 is 47.3 nM.
In the same order, the values of “RPMI-7951 (melanoma, adherent, top dose 5.12 µM)” are 0.662 and 887 nM.
Take “RPMI-8226 (myeloma, suspension, top dose 5.12 µM)”: the AUC was determined as 0.716 and the IC50 is 1190 nM.
“RPMI-8402 (T-cell lymphoblastic leukaemia, suspension, top dose 5.12 µM)”: the AUC was 0.161 and the IC50 came out at 37.6 nM.
In the same order, the values of “RPMI-8866 (chronic myeloid leukaemia, suspension, top dose 5.12 µM)” are 0.866 and 4030 nM.
As to “RS4-11 (leukaemia, suspension, top dose 5.12 µM)”, the AUC came to 0.283 and the IC50 came out at 83.1 nM.
As for “RT4 (bladder, adherent, top dose 5.12 µM)”, the AUC is 0.816 and the IC50 amounted to 3020 nM.
Regarding “RT-112 (bladder, adherent, top dose 5.12 µM)”, the AUC came to 0.704 and the concentration for half-maximal inhibition (IC50) is 1270 nM.
Regarding “RVH-421 (melanoma, adherent, top dose 5.12 µM)”, the AUC worked out at 0.661 and the IC50 is 1060 nM.
With “RXF393 (kidney, adherent, top dose 5.12 µM)”, the AUC turned out to be 0.723 and the IC50 was 1790 nM.
As to “Raji (Burkitt lymphoma, suspension, top dose 5.12 µM)”, the AUC stood at 0.935 and the IC50 is above 5120 nM.
In the case of “Ramos-2G6-4C10 (Burkitt lymphoma, suspension, top dose 5.12 µM)”, the AUC stood at 0.582 and the IC50 was determined as 519 nM.
With “SAS (head and neck, adherent, top dose 5.12 µM)”, the AUC worked out at 0.815 and the IC50 worked out at 3220 nM.
For the cell line “SAT (head and neck, adherent, top dose 5.12 µM)”, the AUC is 0.749 and the IC50 amounted to 2530 nM.
Take “SBC-1 (small cell lung carcinoma, suspension, top dose 5.12 µM)”: the AUC stood at 0.92 and the IC50 is above 5120 nM.
On to “SBC-3 (small cell lung carcinoma, adherent, top dose 5.12 µM)”, for which the AUC amounted to 0.595 and the IC50 was determined as 567 nM.
For the cell line “SBC-5 (small cell lung carcinoma, adherent, top dose 5.12 µM)”, the AUC turned out to be 0.983 and the IC50 was above 5120 nM.
On to “SCC90 (head and neck, adherent, top dose 5.12 µM)”, for which the AUC turned out to be 0.64 and the IC50 worked out at 923 nM.
With “SCC-3 (B-cell lymphoma, suspension, top dose 5.12 µM)”, the AUC came to 0.942 and the IC50 turned out to be 4740 nM.
Regarding “SCC-4 (head and neck, adherent, top dose 5.12 µM)”, the AUC is 0.909 and the IC50 is above 5120 nM.
“SCC-9 (head and neck, adherent, top dose 5.12 µM)”: the AUC turned out to be 0.47 and the IC50 amounted to 258 nM.
In the case of “SCC-15 (head and neck, adherent, top dose 5.12 µM)”, the AUC worked out at 0.702 and the IC50 was 1450 nM.
Taken in the same sequence, the figures for “SCC-25 (head and neck, adherent, top dose 5.12 µM)” were 0.652 and 899 nM.
For “SCH (stomach, adherent, top dose 5.12 µM)”, the AUC worked out at 0.969 and the IC50 was above 5120 nM.
“SF126 (glioma, adherent, top dose 5.12 µM)”: the AUC came to 0.84 and the IC50 was 3790 nM.
For “SF268 (glioma, adherent, top dose 5.12 µM)”, the AUC is 0.889 and the IC50 was above 5120 nM.
As for “SF295 (glioma, adherent, top dose 5.12 µM)”, the AUC came to 0.763 and the IC50 is 1980 nM.
